Measured values as given in the supplement of paper PMC7826260.
Some of the results follow. Cleavage of a single-stranded DNA pool by Rep nickase domains was read by sequencing (3 µM enzyme, 1 h, 37 °C); shown is the middle of each 90-letter strand. Values are log2 of uncut reads against the no-enzyme pool; uncut sequences lie near 0, cut ones below; no hit call is given. Shares of all reads are compared; where an enzyme cuts many sequences, the uncut ones exceed 0.

How the values were obtained:
Test in all cases: uncleaved DNA left, log2 of reads against the no-enzyme library (log2 ratio); higher = less cleavage (more negative = more Rep cleavage of the k-mer); sequences stand for … in CTCGTCCG…ACCGGAGA
[1] = tested on: T1, Rep nickase domain of Muscovy duck circovirus
T1 sequence (Rep 1-111, printed without the tag): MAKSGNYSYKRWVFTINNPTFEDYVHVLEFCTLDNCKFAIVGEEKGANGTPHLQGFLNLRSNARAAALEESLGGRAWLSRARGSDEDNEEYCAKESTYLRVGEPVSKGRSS
Description: (§1)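 A pool of 90-nt single-stranded DNAs with seven random bases just before the constant AC of the nick site (name = the seven bases) was cut by 3 µM recombinant His6-SUMO-tagged Rep nickase domain (300 nM DNA, 50 mM HEPES pH 8.0, 50 mM NaCl, 1 mM MnCl2, 1 h, 37 °C, three replicates). Uncut DNA was amplified and sequenced.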

[2] = tested on: T2, Rep nickase domain of banana bunchy top virus
T2 sequence (Rep 1-94, printed without the tag): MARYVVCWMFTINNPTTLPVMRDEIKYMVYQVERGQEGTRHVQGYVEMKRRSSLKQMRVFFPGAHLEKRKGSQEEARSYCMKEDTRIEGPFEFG
Description: as §1

[3] = tested on: T3, Rep nickase domain of cabbage leaf curl virus
T3 sequence (Rep 1-116, printed without the tag): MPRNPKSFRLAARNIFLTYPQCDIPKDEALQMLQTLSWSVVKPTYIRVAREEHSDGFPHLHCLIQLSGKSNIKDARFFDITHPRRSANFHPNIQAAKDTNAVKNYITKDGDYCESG
Description: as §1

[4] = tested on: T4, Rep nickase domain of chickpea chlorotic dwarf virus
T4 sequence (Rep 1-124, printed without the tag): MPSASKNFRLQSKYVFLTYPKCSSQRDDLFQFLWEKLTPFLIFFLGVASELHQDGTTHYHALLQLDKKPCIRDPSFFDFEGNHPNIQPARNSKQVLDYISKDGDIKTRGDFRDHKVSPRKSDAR
Description: as §1

[5] = tested on: T5, Rep nickase domain of faba bean necrotic yellows virus
T5 sequence (Rep 1-98, printed without the tag): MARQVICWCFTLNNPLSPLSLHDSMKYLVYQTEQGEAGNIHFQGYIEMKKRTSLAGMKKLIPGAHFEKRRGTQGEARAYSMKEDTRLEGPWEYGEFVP
Description: as §1

[6] = tested on: T6, Rep nickase domain of maize striate mosaic virus
T6 sequence (Rep 1-117, printed without the tag): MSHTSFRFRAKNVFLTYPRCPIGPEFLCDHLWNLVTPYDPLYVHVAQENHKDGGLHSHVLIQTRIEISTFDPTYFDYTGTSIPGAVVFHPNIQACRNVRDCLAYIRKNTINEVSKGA
Description: as §1

[7] = tested on: T7, Rep nickase domain of porcine circovirus 2
T7 sequence (Rep 2-116, printed without the tag): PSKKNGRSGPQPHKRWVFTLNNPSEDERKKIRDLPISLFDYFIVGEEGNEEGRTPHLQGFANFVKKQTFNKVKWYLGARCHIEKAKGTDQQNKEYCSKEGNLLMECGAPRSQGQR
Description: as §1

[8] = tested on: T8, Rep nickase domain of tomato golden mosaic virus
T8 sequence (Rep 1-124, printed without the tag): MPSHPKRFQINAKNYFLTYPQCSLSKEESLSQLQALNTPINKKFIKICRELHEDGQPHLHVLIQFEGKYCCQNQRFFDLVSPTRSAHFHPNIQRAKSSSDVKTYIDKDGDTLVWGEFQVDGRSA
Description: as §1

[9] = tested on: T9, Rep nickase domain of tomato yellow leaf curl virus
T9 sequence (Rep 1-136, printed without the tag): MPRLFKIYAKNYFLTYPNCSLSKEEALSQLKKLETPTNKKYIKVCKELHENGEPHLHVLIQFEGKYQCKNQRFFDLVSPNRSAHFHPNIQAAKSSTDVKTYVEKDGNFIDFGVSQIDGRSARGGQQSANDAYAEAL
Description: as §1

[10] = tested on: T10, Rep nickase domain of wheat dwarf virus
T10 sequence (Rep 1-137, printed without the tag): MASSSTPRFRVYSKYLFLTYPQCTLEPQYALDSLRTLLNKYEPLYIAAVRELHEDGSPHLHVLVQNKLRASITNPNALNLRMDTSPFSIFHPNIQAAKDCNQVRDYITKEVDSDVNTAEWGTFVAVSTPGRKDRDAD
Description: as §1

| Sequence | uncleaved DNA left (log2) [1] | uncleaved DNA left (log2) [2] | uncleaved DNA left (log2) [3] | uncleaved DNA left (log2) [4] | uncleaved DNA left (log2) [5] | uncleaved DNA left (log2) [6] | uncleaved DNA left (log2) [7] | uncleaved DNA left (log2) [8] | uncleaved DNA left (log2) [9] | uncleaved DNA left (log2) [10] |
| --- | --- | --- | --- | --- | --- | --- | --- | --- | --- | --- |
| CGGATTG | -0.00477 | -0.0739 | 0.0249 | 0.55 | 0.14 | 1.09 | 0.194 | 0.147 | -0.0085 | 0.0354 |
| TCTCCCC | -0.24 | -0.0684 | 0.145 | 0.0224 | 0.0693 | 0.439 | -1.7 | -0.0971 | -0.0609 | -0.0173 |
| ACATCTA | -0.026 | 0.00793 | -0.224 | -1.35 | -0.053 | -0.754 | -0.0105 | 0.00858 | -0.0523 | -0.0223 |
| TGGCCTC | -0.118 | 0.0778 | 0.263 | 0.623 | 0.0654 | 1.2 | 0.0504 | -0.0542 | -0.0397 | 0.0162 |
| ACACTGG | -0.00356 | -0.0487 | -0.74 | -0.554 | -0.0768 | -1.12 | 0.0759 | -0.088 | -0.0341 | -0.18 |
| CTACCAA | 0.122 | 0.0505 | -0.0894 | -1.89 | 0.0306 | -0.48 | -0.516 | -0.0143 | 0.0408 | 0.0641 |
| CGTAGGG | -0.104 | -0.0926 | -0.174 | 0.242 | -0.0432 | -0.518 | 0.0463 | -0.0989 | -0.0828 | -0.0605 |
| ATACTTA | -0.231 | -0.153 | -0.168 | -1.89 | -0.113 | -0.515 | -0.23 | -0.0943 | -0.155 | -0.127 |
| GCCAAAT | 0.0397 | 0.102 | 0.164 | 0.398 | 0.0129 | 0.332 | 0.0133 | 0.106 | 0.0683 | 0.14 |
| CGTGCGT | -0.152 | -0.248 | -0.85 | -0.678 | -0.0826 | -1.06 | -0.0383 | -0.18 | -0.118 | -0.25 |
| GGTTTGC | -0.0747 | -0.125 | -0.284 | -0.0845 | -0.159 | -0.504 | 0.00255 | -0.138 | -0.0298 | -0.137 |
| CACGAGG | 0.0469 | -0.0264 | 0.206 | 0.85 | 0.0949 | 0.34 | 0.119 | 0.16 | -0.0757 | -0.000524 |
| CGTTTTC | 0.0148 | -0.0683 | 0.0686 | -0.0137 | -0.0354 | -0.418 | -0.0239 | -0.113 | -0.038 | -0.0416 |
| AAAGGTG | -0.0858 | -0.0061 | 0.0713 | 0.858 | -0.0809 | 0.75 | 0.166 | 0.0393 | -0.0905 | 0.00756 |
| CCAGATC | 0.105 | 0.122 | 0.206 | -0.0533 | 0.0332 | -0.495 | -0.0117 | 0.081 | 0.0842 | 0.083 |
| GCCGGAC | 0.109 | -0.0899 | 0.703 | 1.72 | 0.0211 | 2.09 | 0.0203 | 0.124 | -0.00178 | 0.0306 |

| Sequence | uncleaved DNA left (log2) [1] | uncleaved DNA left (log2) [2] | uncleaved DNA left (log2) [3] | uncleaved DNA left (log2) [4] | uncleaved DNA left (log2) [5] | uncleaved DNA left (log2) [6] | uncleaved DNA left (log2) [7] | uncleaved DNA left (log2) [8] | uncleaved DNA left (log2) [9] | uncleaved DNA left (log2) [10] |
| --- | --- | --- | --- | --- | --- | --- | --- | --- | --- | --- |
| ACTGTGC | -0.0418 | -0.0643 | -0.657 | -0.684 | -0.136 | -1.26 | -0.0389 | -0.0249 | 0.0147 | -0.0565 |
| CACCATG | -0.0765 | 0.0105 | -0.699 | -0.647 | 0.0822 | -1.05 | -0.0893 | -0.0688 | 0.245 | 0.0292 |
| AGGAGCG | 0.0559 | 0.00796 | -0.764 | -0.161 | 0.156 | -0.911 | 0.258 | 0.068 | 0.0795 | -0.0531 |
| CTAACTT | 0.0158 | -0.0962 | -0.217 | -2.54 | 0.063 | -0.523 | -0.345 | 0.0462 | -0.0295 | -0.0328 |
| TGGTGGC | -0.0653 | -0.168 | 0.376 | 0.531 | -0.0158 | 0.487 | 0.151 | -0.00466 | -0.0437 | -0.0123 |
| AATATAC | 0.0167 | -0.0279 | -0.0549 | -0.944 | 0.00042 | -0.841 | 0.0488 | 0.000593 | -0.0179 | -0.00462 |
| TCTCGTC | -0.00699 | -0.112 | 0.0514 | -0.278 | -0.0488 | -0.687 | -0.148 | -0.168 | -0.184 | -0.144 |
| AGTATAG | 0.0802 | 0.0435 | -0.704 | -0.475 | 0.0545 | -1.2 | 0.178 | 0.0611 | 0.0853 | -0.0343 |
| GTGCAGC | -0.00814 | -0.0953 | 0.17 | 0.563 | -0.0566 | 0.934 | -0.0787 | -0.0365 | -0.0431 | -0.0542 |
| TTAAGTG | -0.0375 | -0.139 | -0.69 | -1.03 | -0.0521 | -1.22 | 0.0861 | -0.0481 | -0.0468 | -0.164 |
| GACTTTC | -0.272 | -0.0923 | 0.312 | 0.662 | -0.104 | 1.04 | -0.463 | -0.187 | -0.0398 | 0.0373 |
| TCTGTAG | -0.0121 | -0.0958 | -0.692 | -0.862 | 0.0167 | -1.16 | 0.102 | -0.0248 | 0.0423 | -0.156 |
| CAGACAA | -0.0348 | 0.0226 | 0.192 | 0.524 | -0.0548 | 0.318 | -0.179 | -0.0688 | -0.0836 | 0.0514 |
| TCCAATT | 0.106 | -0.147 | 0.00281 | -2.27 | 0.0747 | -0.504 | -0.684 | 0.014 | 0.0903 | 0.0939 |
| GAAGCGA | 0.0958 | 0.106 | -0.63 | -0.19 | 0.0956 | -0.708 | 0.156 | 0.0584 | 0.127 | 0.0714 |
